The values below come from publication PMC12040169 (PLOS Biology, 2025).

Some of the results follow.

The assay concerns T1, C. trachomatis L2/434/Bu expressing GFP (CTL2-GFP).
T1 construct: L2/434/Bu GFP intracellular growth in HeLa cells
Set-up: species or system HeLa; C. trachomatis total inclusion area by high-content imaging, normalised to DMSO. The conditions noted are these: total inclusion area; 28.5 h, 10 µM; inhibitor. An outline of the steps: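 High-content images of fixed, Hoechst-stained infected cultures supply inclusion area and count (growth) plus nuclei number (viability), complementing bulk GFP/resorufin fluorescence. MIC determination is unchanged from the primary assay.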
Regarding `O=C(Nc1cc(F)ccc1N1CCCC1)c1ccc(=O)n(CC(=O)N2CCCCC2)c1` [CBK286083], the “% of control remaining” value was 103.165.

In the case of `Cn1ncc2c1CCCN(C(=O)CCc1ccccc1F)C2` [CBK285255], the “% of control remaining” value is given as 90.1166.

Consider `FC1(F)Oc2ccc(Nc3cncc(-c4cccs4)n3)cc2OC1(F)F` [CBK065727], for which the “% of control remaining” value turned out to be 125.38. `CC(=O)Nc1cccc(-c2cncc(NCCc3c[nH]c4ccccc34)n2)c1` [CBK037820]: the “% of control remaining” value turned out to be 87.8037. `Cc1ccccc1-c1noc(CNC(Cn2ccnc2)C(C)C)n1` (stereo not shown) [CBK307560]: the “% of control remaining” value amounted to 80.037.

As to `O=C(c1ccco1)N1CCC[C@H]1[C@H](O)c1nc2ccccc2s1` [CBK284290], the “% of control remaining” value was 83.9954. On to `c1ccc2c(c1)OCc1nnc(CCN3CCCCC3)n1-2` [CBK005285], for which the “% of control remaining” value amounted to 78.9131. Consider `CCOCCCC(=O)N1CCn2c(nnc2-c2cncc(Br)c2)C1` [CBK304764], for which the “% of control remaining” value amounted to 32.1044.

In the case of `CCCn1c(NC(=O)C(C)Oc2ccc(Cl)cc2Cl)nc2ccccc21` (stereo not shown) [CBK296979], the “% of control remaining” value was determined as 41.4134.

Turning to `COCc1cn(C[C@H]2CC3CCN2C[C@@H]3C(=O)NC2CC2)nn1` (stereo partly shown) [CBK288835], the “% of control remaining” value came out at 83.7469.

For `c1ccc(N2CCN(c3nc(-c4ccoc4)cn4ccnc34)CC2)nc1` [CBK066522], the “% of control remaining” value was 73.4845. On to `Cn1nc(C(=O)NCC2(c3cccc(F)c3)CCCC2)ccc1=O` [CBK281437], for which the “% of control remaining” value came out at 102.595. Consider `COc1nc(NCCc2ccc(OC)c(OC)c2)nc(OC)n1` [CBK266304], for which the “% of control remaining” value was 122.924. In the case of `CCOc1ccc(Oc2nc(N(C)C)nc(N3CCOCC3)n2)nn1` [CBK269585], the “% of control remaining” value turned out to be 70.7373. For `O=C(N[C@H]1CC[C@H](O)CC1)C1(Cc2cc(-c3ccc(F)cc3F)no2)CCOCC1` [CBK286352] the value was 115.472; for `O=C(CSCc1nc2ccccc2c(=O)n1-c1ccccc1Cl)Nc1ccccc1` [CBK070895], 89.9682; for `Cn1c(CN2CCN(C3CCCCC3)C(=O)C2)nc2ccccc21` [CBK281893], 96.9705. For `N=C(N)SCc1csc(-c2ccc(Br)cc2)n1` [CBK017064C] the value was 23.5729. The value for `Nc1ncc(-c2ccco2)nc1-c1ccc(F)c(Cl)c1` [CBK064013] was 161.111; that for `Cc1sc(-c2cccs2)nc1OC(=O)c1cccc(C(F)(F)F)c1` [CBK067748] was 81.5698.

Turning to `O=C1Nc2cc(Cl)ccc2C(=O)N2CCN(C(=O)C3CCCCC3)C[C@H]12` [CBK289586], the “% of control remaining” value is 112.161. The value for `CC1(CC(=O)Nc2ccccc2)NC(=S)N(c2ccccc2)N1` (stereo not shown) [CBK265534] was 70.212.
